Out of some 310,000 compounds screened, about 18,000 (5.8%) were called active. Inconclusive results, whose numbers are uncertain, are shown with a selection of clear calls. The call rests on the fitted dose curve; in most records, active means well fitted inhibition curve with a large enough effect; inconclusive means small, poorly fitted or top-dose-only effect, or another doubt; inactive means no such curve, though single readings can be large or run the other way. Potencies of inconclusive entries are left out as doubtful fits.
Experiment: Primary qHTS for delayed death inhibitors of the malarial parasite plastid, 48 hour incubation
Details: P. falciparum luciferase growth in erythrocytes; series mostly up to 28.7 µM; activity change, negative = inhibition: at the top concentration
Procedure, shortened: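 Compounds are pin-transferred into medium, infected erythrocytes (2% hematocrit, 0.1% parasitemia final) are added, and plates sit one parasite generation at 37 C in 5% CO2. Detection reagent is then added and luminescence measured.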
In the case of Cc1ccc(-c2ccc(/C=C3\SC(N4CCOCC4)=NC3=O)o2)cc1, the Potency is reported as inconclusive [inhibitor, partial curve, poor fit].
In the case of CC(C)C(=O)Nc1ccc([N+](=O)[O-])cc1Br, the “activity change, negative = inhibition” value is reported as inactive: 3.55%.
For Cc1sc2ncnc(N3CCC(C(=O)N(C)CC(=O)Nc4ccccc4Br)CC3)c2c1C, the Potency was inconclusive [inhibitor, full curve, poor fit].
In the case of Cc1ccc(Cn2ncc3c(N4CCN(CC#N)CC4)ncnc32)cc1, the Potency is reported as inconclusive [inhibitor, partial curve, poor fit].
For CCc1nn(-c2cc(Oc3cccc4ccccc34)nc(-c3ccccc3)n2)c(N)c1C#N, the Potency was inconclusive [inhibitor, full curve].
In the case of CCOc1c(Nc2cccc(Cl)c2)c(=O)c1=O, the Potency is reported as active: 7.38 µM.
For Cc1ccc(C(=O)Nc2nccc(-c3cccs3)n2)cc1, the “activity change, negative = inhibition” value was inactive: 5.43%.
For CCC(C)(C)n1nnnc1C(c1ccc2ncccc2c1)N1CCN(c2nc3ccccc3s2)CC1 (stereo unspecified), the Potency was active: 5.22 µM.
In the case of Cc1cc(C(=O)NNS(=O)(=O)c2ccc(C(C)(C)C)cc2)nn1C(C)(C)C, the Potency is reported as active: 10.4 µM.
With CCn1nnc(NC(=O)c2ccc(C(C)(C)C)cc2)n1 the Potency was active: 2.94 µM.
For CCCC(=O)Nc1ccc(-c2cn3cccnc3n2)cc1, the “activity change, negative = inhibition” value was inactive: 55.6%.
For CNCCC(=O)N1c2ccccc2CCc2ccc(NC(=O)OC)cc21, the “activity change, negative = inhibition” value was inactive: -11%.
In the case of Cc1sc2nc(CN3CCOCC3)nc(Oc3ccc(NC(=O)c4ccco4)cc3)c2c1C, the Potency is reported as inconclusive [inhibitor, partial curve, poor fit].
For COc1ccc(NC(=O)CSc2nc3ccccc3nc2N2CCCCC2)cc1, the “activity change, negative = inhibition” value was inactive: -16.4%.
In the case of CCOc1ccccc1N1CCN(C2=C(NS(=O)(=O)c3cccs3)C(=O)c3ccccc3C2=O)CC1, the Potency is reported as active: 10.4 µM.
For COc1ccc(NC(=O)C2CC(=O)N(CCc3ccc(F)cc3)C2)c(OC)c1 (stereo unspecified), the “activity change, negative = inhibition” value was inactive: -3.78%.
With O=c1c2ccccc2nc(SCc2ccccc2Cl)n1Cc1ccccc1 the Potency was inconclusive [inhibitor, partial curve, poor fit].
In the case of O=C(CN1C(=O)c2cccc([N+](=O)[O-])c2C1=O)N1CCN(c2ccc(F)cc2)CC1, the “activity change, negative = inhibition” value is reported as inactive: 13.9%.
In the case of Cc1cc(C)c(-c2c(O)c3cccc4c3n(c2=O)CCC4)c(C)c1, the Potency is reported as inconclusive [inhibitor, single point].
For N=C1C(c2ccccc2)=C(O)CN1c1cccc2ccccc12, the “activity change, negative = inhibition” value was inactive: -20.8%.
For C=CCN(C(=O)Cn1c(C(=O)OC)cc2oc(C)cc21)c1ccccc1, the Potency was inconclusive [inhibitor, single point].

Source: PubChem BioAssay AID504832 (National Center for Advancing Translational Sciences (NCATS), 2011)
On the % scale 0 is the no-effect control and ±100 the full control effect; potency means the concentration at half of the fitted maximal effect; tags describe the fitted curve by direction and shape.
